Measurements reported in the supplement of paper PMC11417369.
± gives the standard deviation of the averaged measurements. The list shows a part of the results.

system: PfAP2-EXP AP2 domain (GST-tagged); assay: gcPBM binding intensity (ln(normalized median fluorescence intensity)); higher = stronger DNA binding
Outline: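 For binding intensity, the highest Masliner-normalised natural-log median intensity across replicate spots of either probe orientation was taken. Protein bound to the array was stained with Alexa488 anti-GST antibody and scanned at 488 nm. The protein, GST-tagged P. falciparum DNA-binding domains from E. coli at about 25 μg on average, had been applied for 1 h to an Agilent 4 × 180k array of primer-extended double-stranded 36-bp intergenic genomic probes and negative controls.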

Sequence | gcPBM binding intensity (ln)
AGGTTTCATTTAGCATGTACATATTATAAAAATTGT [XGTACX_site8448] | 8.77 ± 0.31
TCTGTTAATATTTATACACACATATATATATATATA [CACACA_site1139] | 10.1 ± 0.38
AAGATTACTTATATATGTACACATAATACAAATGTC [XGTACX_site520] | 8.39 ± 0.27
TTTTAGAGTGGTATATATTAATTTTTAATAAAAAAA [CACACA_negctrl_site1652] | 8.05 ± 0.28
TTTTTCATAAAAAAATAAAAAAAATTAACATAGAAA [XGTACX_negctrl_site11] | 8.48 ± 0.34
ATAATATATACTATATGTACATATCTTTTCCTCTTT [XGTACX_site5553] | 8.81 ± 0.45
TGTGCATAAATTTATGCACACATAAAAAAAAAAAAA [CACACA_site8954] | 8.85 ± 0.34
AATAAAAGAAGACAGAGTACACAGGTTGTATTTTCC [XGTACX_site7208] | 8.73 ± 0.44
ATAGTATCTGGTAGCTGTACGAGTCGTAGAGTGTAG [XGTACX_site2030] | 9.04 ± 0.38
AGAAAGGTGGTATTAAAAGAATAACCTATGAATAAA [GTGCAC_negctrl_site325] | 8.53 ± 0.59
TATAATAATAATTATTGTACGATTAGGTTAATTCAT [XGTACX_site1984] | 8.37 ± 0.23
TGGGAAGGGTGGGAAACTTTATCAAAAACTTATTAC [GTGCAC_negctrl_site16] | 8.87 ± 0.51
TATGTATTTTTTAAGTGTACCTATATATATATATAT [XGTACX_site7934] | 10.2 ± 0.3
AAATAATATTTTTTTTTTTTTTTTTTTTTATGTTAT [CACACA_negctrl_site809] | 8.05 ± 0.42
AAAAAAAAAAAAAAAACACACAAATCATAAATAAAT [CACACA_site478] | 8.57 ± 0.35
TGGTAGTATATCATAGAAATCATTGTATAACAAATA [XGTACX_negctrl_site569] | 8.32 ± 0.38
ATACAGTTGCATATGGTGCACGAATAATACACCTAT | 9.05 ± 0.23
ATAGTCTTAATGACTACACACCTAACTATGCATGCA [CACACA_site5084] | 9.985 ± 0.078
ATTTTTCTTTTTAATACACACAAAAGTGATACAAAC [CACACA_site3923] | 8.6 ± 0.48
TTTTTTTGTATTTGTTTATTTAATGATAAAATTAAA [CACACA_negctrl_site225] | 8.51 ± 0.45
TGTATTATATATACACAAATATTTATGTGTGTGTTT [XGTACX_negctrl_site475] | 8.38 ± 0.28
TTGTTCTATTTAAGTAGTACATACACACACATATAC [XGTACX_site8484] | 8.84 ± 0.3

Sequence | gcPBM binding intensity (ln)
ACATATATATATTCTACACACTTATAATATAATACA [CACACA_site2461] | 8.62 ± 0.46
CACAATACTTTCATCACACATATATATATATATATA [CACACA_site4677] | 10.1 ± 0.28
TATATATATATATATAGTACATATTTATATATGAAA [XGTACX_site8488] | 10.1 ± 0.36
GAATTAAAATAATACGTACACACATGTATAATACAT [CACACA_site1004] | 8.73 ± 0.23
TTTCGTTCATAAAAAAGTACATATGAGCAAAAGGTA [XGTACX_site8936] | 8.75 ± 0.3
ACTAAACTAATATGTACACACATATAACATTAATTT [CACACA_site7128] | 8.49 ± 0.2
TGCACAAAATTATGCACACACCTAAAATTAATTTTT [CACACA_site5596] | 8.93 ± 0.057
ATTCTAATCATATACACACCCATATATATATATATA [CACACA_site1774] | 10.3 ± 0.3
GGCAATGATTTTAGGTGTACTTAAAAATCAAATTAA [XGTACX_site8587] | 8.48 ± 0.14
TATAAAAAATAAAATACACACACATATATATATATA [CACACA_site8365] | 10.1 ± 0.2
TAATTTCTTATGTGCTATCTTATATAGAATTAATTT [CACACA_negctrl_site1726] | 8.54 ± 0.54
TTATTCTAAAAAGGGTGTACACAAACGAATGGAAAA [XGTACX_site5662] | 9.39 ± 0.52
AAAAAAAAAATTTAGGTGCATACAAATAAATTATAT [GTGCAC_site9521] | 8.46 ± 0.23
AGCAGTCAGCAGGACAGTACACAGTAGCCAGGAAAT [XGTACX_site4877] | 8.7 ± 0.62
ATGGCTAAAAGTTGCACACACACAAAAAAAAAAAAA [CACACA_site3289] | 8.41 ± 0.4
TATATATTAATATGCACACACAAGAAGTAATTATAA [CACACA_site3193] | 8.91 ± 0.36
ATTATATAACAAAATAGTACATATATTTATTACATC [XGTACX_site336] | 8.28 ± 0.31
GGCATACACGGACACACACACACACCGACATATATA [CACACA_site4493] | 8.95 ± 0.35
ATTATATATATTTATGCACACAAAATATATTATATA [CACACA_site9244] | 8.3 ± 0.26
TATATACATTTATATACACACCTATATTTATTTATA [CACACA_site7014] | 8.43 ± 0.51
TTTTTTTAACGGTGTGCACACAATATACAGAAAAAA [CACACA_site1415] | 9.09 ± 0.64
ATGTACCTATTTCATACACACACACCCACAAACAAA [CACACA_site8232] | 8.83 ± 0.47
